PubChem BioAssay AID1347165 (National Center for Advancing Translational Sciences (NCATS), 2019)
Screen size: about 220,000 compounds; about 5,700 (2.6%) were called active. Inconclusive results, whose numbers are uncertain, are shown with a selection of clear calls. The call rests on the fitted dose curve; in most records, active means well fitted inhibition curve with a large enough effect; inconclusive means small, poorly fitted or top-dose-only effect; inactive means no such curve, though single readings can be large or run the other way. Where the call is inconclusive, the potency comes from a doubtful curve fit.

Molecular target: Lysine-specific demethylase 5B (Homo sapiens) (UniProt Q9UGL1)
Chain of UniProt Q9UGL1 (Q9UGL1 whole entry, looked up): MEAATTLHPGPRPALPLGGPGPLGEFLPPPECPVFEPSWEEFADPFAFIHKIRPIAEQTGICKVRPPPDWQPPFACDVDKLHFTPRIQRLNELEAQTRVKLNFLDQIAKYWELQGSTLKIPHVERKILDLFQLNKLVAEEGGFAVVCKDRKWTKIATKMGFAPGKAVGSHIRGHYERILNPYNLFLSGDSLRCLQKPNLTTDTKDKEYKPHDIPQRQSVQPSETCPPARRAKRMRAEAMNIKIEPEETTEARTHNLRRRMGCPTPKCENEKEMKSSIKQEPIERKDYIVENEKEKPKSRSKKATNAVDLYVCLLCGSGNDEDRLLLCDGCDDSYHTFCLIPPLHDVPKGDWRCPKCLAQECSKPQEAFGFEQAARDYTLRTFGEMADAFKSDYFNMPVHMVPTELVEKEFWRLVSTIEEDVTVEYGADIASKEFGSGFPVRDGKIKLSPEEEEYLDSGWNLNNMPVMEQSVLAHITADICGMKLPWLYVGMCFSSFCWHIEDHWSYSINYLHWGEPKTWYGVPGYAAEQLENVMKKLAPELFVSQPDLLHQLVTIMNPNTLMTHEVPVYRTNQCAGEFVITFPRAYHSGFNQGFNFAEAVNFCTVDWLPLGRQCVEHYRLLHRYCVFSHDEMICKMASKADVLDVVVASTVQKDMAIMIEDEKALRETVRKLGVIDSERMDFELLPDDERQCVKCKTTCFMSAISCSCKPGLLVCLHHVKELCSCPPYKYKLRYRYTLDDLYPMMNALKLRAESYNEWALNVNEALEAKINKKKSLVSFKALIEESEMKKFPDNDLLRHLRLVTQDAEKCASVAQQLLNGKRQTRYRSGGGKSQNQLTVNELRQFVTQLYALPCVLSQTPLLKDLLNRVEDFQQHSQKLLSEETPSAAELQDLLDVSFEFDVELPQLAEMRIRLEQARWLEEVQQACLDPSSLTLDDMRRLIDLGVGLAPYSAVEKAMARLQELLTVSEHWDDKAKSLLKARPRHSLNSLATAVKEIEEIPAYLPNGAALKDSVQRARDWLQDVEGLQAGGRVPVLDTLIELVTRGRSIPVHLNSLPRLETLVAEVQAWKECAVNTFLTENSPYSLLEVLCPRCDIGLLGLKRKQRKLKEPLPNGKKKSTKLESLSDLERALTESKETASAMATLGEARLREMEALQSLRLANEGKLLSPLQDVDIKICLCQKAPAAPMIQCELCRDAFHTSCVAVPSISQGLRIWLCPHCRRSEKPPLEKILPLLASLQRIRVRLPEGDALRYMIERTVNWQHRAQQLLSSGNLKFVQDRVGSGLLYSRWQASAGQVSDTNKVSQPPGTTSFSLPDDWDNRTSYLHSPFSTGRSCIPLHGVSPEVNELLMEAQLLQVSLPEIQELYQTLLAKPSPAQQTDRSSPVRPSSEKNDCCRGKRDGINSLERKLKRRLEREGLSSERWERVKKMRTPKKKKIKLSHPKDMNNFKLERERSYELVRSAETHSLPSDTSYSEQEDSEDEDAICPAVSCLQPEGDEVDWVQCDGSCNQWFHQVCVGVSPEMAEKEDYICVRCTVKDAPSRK
Assay: Primary screen for KDM5B Histone Demethylases FDH-coupled qHTS; further: nearly all actives have a fitted effect of over 70% in size
Conditions: FDH-coupled NADH fluorescence (FDH is formaldehyde dehydrogenase); series mostly up to 57.7 µM
Summary of the method: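 Inhibition is measured as reduced NADH fluorescence generation from FDH coupling to formaldehyde release. Truncated KDM5BΔAP at 200 nM final acts on H3K4me3 peptide (12.5 µM in substrate mix) in pH 7.5 HEPES buffer with Tween-20, 30 min, room temperature.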
Potency means the concentration at half of the fitted maximal effect; tags describe the fitted curve by direction and shape.

SMILES | Potency
CCCCCCCn1c(=O)c(C(=O)OC)c(N)c2ccccc21 | inconclusive: 31.6 µM [inhibitor, partial curve, poor fit]
O=C(CSc1ccc2nnc(CCNS(=O)(=O)c3ccccc3)n2n1)Nc1ccccc1C(F)(F)F | inconclusive: 15.8 µM [inhibitor, partial curve, poor fit]
CCc1cccc(NC(=O)CN2c3ccccc3S(=O)(=O)c3ccccc32)c1 | inconclusive: 31.6 µM [inhibitor, partial curve, poor fit]
O=C1NCCCCCCN(CC2CCCCC2)[C@H]2CCC[C@@H]12 | inconclusive: 22.4 µM [inhibitor, partial curve, poor fit]
O=C(c1ccc(N2CC3CC(C2)[C@H]2CCCC(=O)N2C3)nc1)N1CCN(c2ccc(Cl)cc2)CC1 (stereo partly drawn) | inconclusive: 28.2 µM [inhibitor, partial curve, poor fit]
N#C/C(=C\C=C\c1ccco1)C(=O)NC1CC1 | inconclusive: 15.8 µM [inhibitor, partial curve, poor fit]
Cc1c(C)c2cc(Cl)c(OCC(=O)NCc3ccccn3)cc2oc1=O | inactive
COc1cc(CN2CCN(S(=O)(=O)c3ccc(F)cc3)CC2)cc(OC)c1OC | inconclusive: 2.24 µM [inhibitor, full curve, poor fit]
CCOc1ccccc1CN1CCc2nc(Nc3ccccc3)ncc2C1 | inconclusive: 15.8 µM [inhibitor, partial curve, poor fit]
COc1ccc(-c2cc(C(=O)O)c3ccccc3n2)cc1 | inconclusive: 25.1 µM [inhibitor, partial curve, poor fit]
O=C(N/N=C/C=C/c1ccco1)c1cnccn1 | inconclusive: 22.4 µM [inhibitor, partial curve, poor fit]
COc1cc2c(cc1OC)n(CC(=O)c1ccc(C)cc1)c(=O)n1nc(CCn3nc(C)cc3C)nc21 | inconclusive: 11.2 µM [inhibitor, partial curve, poor fit]
Cc1ccccc1-c1nc2cc(NC(=O)/C=C/c3ccco3)ccc2o1 | inconclusive: 31.6 µM [inhibitor, single point]
COc1ccc(NC(=O)c2ccc3c(c2)CCN3S(=O)(=O)c2ccccc2)cc1 | inconclusive: 35.5 µM [inhibitor, single point]
CN(C)C[C@@H]1CN(c2ncccn2)C[C@H]1NC(=O)c1cccc(F)c1 | active: 20 µM
COc1ccc(-c2cc(C(=O)Oc3cccc(C)c3C)c3ccccc3n2)cc1 | inconclusive: 2.82 µM [inhibitor, partial curve, poor fit]
CC(C)c1noc(-c2cccn3c(CNC(=O)c4cc(F)ccc4Cl)nnc23)n1 | active: 22.4 µM
CCn1nc(C(=O)OCCOc2ccc(OC)cc2)c2ccccc2c1=O | inactive
COc1cc(/C=C2\C(=O)ON=C2c2ccc(Cl)cc2)ccc1O | inconclusive: 4.47 µM [inhibitor, full curve, poor fit]
CSc1ccc(/C=N/Nc2cccc(Cl)c2)cc1 | inconclusive: 22.4 µM [inhibitor, partial curve, poor fit]
COCCOc1ccc2c(n1)CCN(C(=O)c1cc(OC)cc(OC)c1)C2 | inactive

SMILES | Potency
CC(C)NC(=O)N[C@H]1C[C@H]2C(=O)NC[C@@H](CCC(=O)N3CCN(c4ccccc4)CC3)N2C1 | inconclusive: 25.1 µM [inhibitor, partial curve, poor fit]
Cc1ccc(O)c(NC(=O)c2cc(-c3cccnc3)nc3ccccc23)c1 | inactive
CCCCCn1nc(C(=O)N2CCC(C(=O)Nc3ccc4c(c3)OCO4)CC2)c2ccccc2c1=O | inactive
O=C(N1CCC(Cc2nc(C3CC3)n[nH]2)CC1)C1(c2ccccc2)CC1 | active: 17.8 µM
Fc1ccccc1CN1CCOC[C@H]1c1ncc(-c2cccc(Cl)c2)[nH]1 | inconclusive: 35.5 µM [inhibitor, partial curve, poor fit]
Cc1ccc2oc([C@H]3CCN(Cc4ccc(C(F)(F)F)cc4)C3)nc2c1 | inactive
COc1ccc(Nc2cnc3ccc(-c4cccc(CO)c4)nn23)cn1 | inconclusive: 31.6 µM [inhibitor, partial curve]
Cc1c(C(=O)NCc2ccccc2Br)oc2ccc3c(c12)C(=O)CC(C)(C)O3 | inconclusive: 10 µM [inhibitor, partial curve, poor fit]
Cc1[nH]c2ccccc2c1C(c1ccc(Cl)cc1)c1c(C)[nH]c2ccccc12 | inconclusive: 35.5 µM [inhibitor, single point]
COc1ccc(-c2nc(S(=O)(=O)c3ccc(C)cc3)c(NCc3ccccc3)o2)cc1 | inconclusive: 25.1 µM [inhibitor, partial curve, poor fit]
CCc1c(C)c(C#N)c2nc3ccccc3n2c1Nc1cccc(C(F)(F)F)c1 | inconclusive: 25.1 µM [inhibitor, partial curve, poor fit]
CC(=O)Nc1ccc(NC(=O)C2c3ccccc3C(=O)N(C3CCCC3)C23CCCC3)cc1 (stereo not drawn) | inconclusive: 3.16 µM [inhibitor, full curve, poor fit]
Cc1ccc(-c2cnc(CCC(=O)N(C)Cc3ccco3)o2)cc1C | inactive
CC1C=CC(C)N1c1ncnc2c1CN(C1CCNC1)C(=O)CN2C (stereo not drawn) | active: 89.1 µM
COc1ccc(C(=O)CSc2nnc3ccc(-c4ccccn4)nn23)cc1 | inconclusive: 28.2 µM [inhibitor, partial curve, poor fit]
O=S(CCc1ccncc1)Cc1ccc2c3c(cccc13)CC2 (stereo not drawn) | inconclusive: 31.6 µM [inhibitor, partial curve, poor fit]
Cc1cc(O)c2c(C)c(CC(=O)NCc3ccc(F)cc3)c(=O)oc2c1 | inconclusive: 35.5 µM [inhibitor, single point]
CCN1CCN(CCNC(=O)c2cn3ccnc(-c4ccc(OC)cc4)c3n2)CC1 | active: 28.2 µM
CCn1cc(-c2ccc(Cl)cc2)cc1C(=O)NCC(=O)OC | inactive
COc1ccc(-c2nc3ccccc3s2)cc1NC(C)=O | inconclusive: 3.98 µM [inhibitor, full curve, poor fit]
O=C(c1cc(-c2ccc(F)cc2)nc2ccccc12)N1CCC(c2nc(C3CCOCC3)no2)C1 (stereo not drawn) | active: 28.2 µM

SMILES | Potency
Cc1ccccc1NC(=O)CCc1c[nH]c2ccccc12 | inactive
COc1ccc(CNC(=O)C2CCN(S(=O)(=O)c3ccc4c(ccn4C)c3)CC2)cc1 | inconclusive: 25.1 µM [inhibitor, single point]
C[C@@H]1CN(c2ccc(C#N)cn2)C[C@@]1(O)C1CC1 | inconclusive: 12.6 µM [inhibitor, partial curve]
O=C(c1ccc(Cl)cc1)N1CC2(CCN(Cc3ccccn3)C2)Cc2ccccc21 (stereo not drawn) | inconclusive: 44.7 µM [inhibitor, partial curve, poor fit]
O=c1[nH]n(CCO)c(=O)c2cccnc12 | inconclusive: 39.8 µM [inhibitor, single point]
O=C(c1ccccc1)N1CCC(c2nnc3n2C(C(=O)N2CCN(c4ncccn4)CC2)CC3)CC1 (stereo not drawn) | inconclusive: 50.1 µM [inhibitor, partial curve]
CC(=O)NC[C@H]1OC[C@@H](NC2CCCCC2)[C@@H]1O | inactive
Cc1cccc(NC(=O)N2CCc3c(c4ccccc4n3C)C2)c1C | active: 22.4 µM
CCN(CC)CCNCc1cccs1 | inactive
O=C(NCC1CCCO1)c1ccc(CSc2nc3cccnc3n2Cc2ccccc2)cc1 (stereo not drawn) | inconclusive: 28.2 µM [inhibitor, single point]
CCc1cccc(NC(=O)[C@@H]2COCC(=O)N2Cc2ccc(OC)cc2OC)c1 | inactive
Cc1ccc(Cl)cc1N1C(=O)N(CC(=O)N2CCCCCC2)c2ccccc2S1(=O)=O | inconclusive: 31.6 µM [inhibitor, partial curve, poor fit]
CC(CCCc1ccccc1)NC(=O)c1nn(-c2ccc(Cl)cc2)nc1CO (stereo not drawn) | inconclusive: 28.2 µM [inhibitor, partial curve, poor fit]
Cc1ccc2[nH]c3c(=O)n(CC(=O)N4CCCC(C)C4)ncc3c2c1 (stereo not drawn) | inconclusive: 10 µM [inhibitor, partial curve, poor fit]
CC(=O)c1cccc(Nc2nc(-c3ccccc3Cl)nc3ccccc23)c1 | inconclusive: 31.6 µM [inhibitor, partial curve, poor fit]
CCc1c(CN2CCN(c3cccc(C)c3)C(C)C2)csc1C (stereo not drawn) | inconclusive: 35.5 µM [inhibitor, single point]
O=C(Cn1ncc2c3ccccc3n(Cc3cccc(Cl)c3)c2c1=O)N1CCCCCC1 | inconclusive: 35.5 µM [inhibitor, partial curve, poor fit]
Cc1ccc(S(=O)(=O)NCC(=O)OCc2coc(-c3cccs3)n2)cc1C | inconclusive: 39.8 µM [inhibitor, single point]
FCCCOc1ccc(-c2nccc(-c3ccccn3)n2)cc1 | inconclusive: 39.8 µM [inhibitor, partial curve, poor fit]
O=C(NCc1ccco1)c1ccc2c(c1)N(Cc1cccc(Cl)c1)C(=O)c1ccccc1S2=O (stereo not drawn) | inconclusive: 14.1 µM [inhibitor, partial curve, poor fit]
Cc1ccc(CN2CCCN(Cc3ccncc3)C(c3ccccc3)CC(=O)NCC2)s1 (stereo not drawn) | inconclusive: 20 µM [inhibitor, partial curve, poor fit]
